Experimental data reported in the supplement of paper PMC3334620.
Over roughly 33,000 sequences, “E-score (-0.5 to 0.5)” has its median near -0.011; the highest 2% begin near 0.28. The list shows a part of the results.

These sequences were tested against T1, Gcr1 (UniProt P07261) (assay: PBM E-score (8-mer binding enrichment) (E-score (-0.5 to 0.5)); higher = stronger / more preferred TF binding; most listed sequences are background and not binding sites). Conditions: protein concentration: 100 nM; construct: GST-full length.
T1 sequence: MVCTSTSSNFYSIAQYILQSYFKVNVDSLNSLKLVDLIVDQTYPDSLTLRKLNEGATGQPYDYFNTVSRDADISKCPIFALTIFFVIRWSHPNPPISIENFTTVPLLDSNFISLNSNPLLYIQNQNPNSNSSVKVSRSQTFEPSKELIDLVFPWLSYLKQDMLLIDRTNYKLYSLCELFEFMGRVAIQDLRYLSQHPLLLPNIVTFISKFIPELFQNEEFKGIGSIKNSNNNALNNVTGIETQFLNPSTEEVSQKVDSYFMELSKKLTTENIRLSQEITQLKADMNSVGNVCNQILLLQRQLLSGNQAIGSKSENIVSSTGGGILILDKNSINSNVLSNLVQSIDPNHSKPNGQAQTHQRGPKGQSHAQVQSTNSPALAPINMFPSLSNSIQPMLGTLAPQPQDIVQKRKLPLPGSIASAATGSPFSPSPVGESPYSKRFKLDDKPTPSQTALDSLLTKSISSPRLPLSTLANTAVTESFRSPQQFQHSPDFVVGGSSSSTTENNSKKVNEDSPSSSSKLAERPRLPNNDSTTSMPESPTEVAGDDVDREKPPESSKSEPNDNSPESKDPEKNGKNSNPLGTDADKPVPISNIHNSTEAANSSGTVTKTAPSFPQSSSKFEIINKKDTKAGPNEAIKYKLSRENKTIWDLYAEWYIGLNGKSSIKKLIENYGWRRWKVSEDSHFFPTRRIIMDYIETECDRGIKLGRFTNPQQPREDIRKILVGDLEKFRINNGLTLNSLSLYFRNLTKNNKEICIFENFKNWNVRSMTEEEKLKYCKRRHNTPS
Method in brief: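 Universal all-10-mer Agilent arrays, fresh or stripped once, were converted to double-stranded form by primer extension. GST-tagged yeast transcription factors from PURExpress in vitro transcription/translation, full-length or DNA-binding domain only, were applied at about 100-200 nM and detected with fluorescent anti-GST. After masliner normalisation, the Universal PBM Analysis Suite scored each ungapped eight-base word together with its reverse complement by E-score.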

| Sequence | PBM E-score |
| --- | --- |
| CGAGTACG | -0.0512 |
| CAACTACG | -0.117 |
| AGTGTTGG | 0.103 |
| CACCCCAC | 0.126 |
| ACCATCCT | 0.0586 |
| TCTGTAAA | 0.103 |
| ACCAAGGT | -0.1 |
| CGCTGGGA | 0.114 |
| AAATATCG | 0.109 |
| ATATACGG | -0.0387 |
| CCCCAAAA | 0.188 |
| CTTCGTAA | 0.174 |
| CCTAATAA | 0.218 |
| CATCTAGG | -0.0251 |
| ATGATAAA | 0.0745 |
| GGATACGA | -0.138 |
| ATAAGCCC | -0.17 |
| ACTCGATG | 0.0464 |
| CGCAGGGA | -0.185 |
| CAGGCCTG | -0.217 |
| CCTTCTGA | 0.107 |
| ATCTAGAA | 0.234 |
| ACTCTTTC | -0.12 |
| GCTCGCAA | -0.174 |
| AAAACCCA | 0.0376 |

| Sequence | PBM E-score |
| --- | --- |
| ACTGGGTG | 0.213 |
| CCTCAGGA | 0.0261 |
| CGCAAGCG | -0.182 |
| GGTCGGAC | -0.206 |
| AGCCGTTC | -0.0625 |
| TAGATCTA | 0.0037 |
| ATATCAAA | 0.0126 |
| TACCCCTA | -0.0302 |
| AGTGTAGA | -0.0425 |
| AGGGAAAA | 0.108 |
| AAAAAGGG | 0.264 |
| AGAGGGTC | -0.153 |
| AACTGGGA | 0.0745 |
| GCTACCCA | 0.00454 |
| GACAGAGC | -0.149 |
| AAGTCGTC | 0.145 |
| CAACACAC | 0.016 |
| CTGCATTC | 0.11 |
| ATCGGTGC | 0.0266 |
| AATCATTC | -0.0135 |
| AACTCGCC | -0.238 |
| ACTAGACC | -0.226 |
| ACACAACG | -0.063 |
| ATACAAAG | 0.0628 |
| CACCTGTA | 0.0936 |

| Sequence | PBM E-score |
| --- | --- |
| GGAGGCAC | -0.00433 |
| ACTTACCG | -0.0842 |
| ATCGCTAA | -0.0832 |
| CGAGGGCA | -0.024 |
| GCACACGA | -0.00983 |
| ACGTACGG | 0.0221 |
| GATATCGC | -0.071 |
| ACGCATGG | 0.0563 |
| CTGCTAAG | -0.151 |
| AGACCGAA | -0.18 |
| GAATAGAA | 0.124 |
| AAGCCGTA | -0.153 |
| AAGGCATA | -0.307 |
| AAGGCAGT | -0.102 |
| GTGGGTCA | -0.239 |
| ACGCGTAC | -0.156 |
| GATACGCC | 0.0723 |
| CAAACTGC | 0.0479 |
| GCCCCTAA | 0.199 |
| AGCACGTA | -0.00967 |
| CAGTGTGG | 0.00248 |
| CGTGCGAG | 0.0623 |
| AAAACAAG | -0.012 |
| AAAGTCAG | -0.0699 |
| CGCATTAG | 0.132 |

| Sequence | PBM E-score |
| --- | --- |
| CTTACGAC | -0.111 |
| ACGGGCGC | 0.092 |
| CTCTACGC | 0.014 |
| CAGCCTAC | -0.209 |
| CGCGGGCA | -0.00343 |
| CCTCGCCG | -0.188 |
| AAGCGCTA | -0.0831 |
| AAGCGTAT | 0.00221 |
| AATTAACT | -0.0748 |
| ACGAGGTG | 0.0302 |
| AGTCACTA | 0.132 |
| ATAAAATC | -0.034 |
| CAAGTATC | 0.109 |
| GCTTCGTA | 0.329 |
| CATCAGGC | -0.105 |
| ACATCGCA | 0.0289 |
| CAAGATGC | 0.277 |
| ATATGCTG | 0.0614 |
| GCAATACA | -0.0369 |
| GCCCGTTA | -0.0567 |
| CCCCCATA | -0.0645 |
| GAGAGTAA | 0.0892 |
| ATAGGTTG | 0.0783 |
| ACCACGCT | -0.145 |
| ATCGTTAC | -0.135 |

| Sequence | PBM E-score |
| --- | --- |
| GCCCGAGC | -0.206 |
| TCACATAA | -0.0117 |
| ACAATGTA | 0.016 |
| GACCCCAA | 0.093 |
| ACAGTTAT | 0.0965 |
| AGCTAGCA | 0.0297 |
| AGGTCGGG | -0.149 |
| GCAGAAGC | 0.0881 |
| GACGCTCA | 0.106 |
| AGTTTAAA | -0.00503 |
| AGATGTTG | 0.113 |
| ATGAGGGA | -0.0163 |
| CCTGCGAC | -0.156 |
| CAGCAGCG | 0.275 |
| CCACACCG | 0.0542 |
| AGCCTCTC | -0.122 |
| AGCCAGGG | -0.055 |
| ACTGGATG | 0.326 |
| AATGCAGT | -0.0302 |
| CCATGTGC | 0.0687 |
| CTTGGGGC | 0.0599 |
| CGGGCCAG | -0.157 |
| AGATAAAC | -0.045 |
| CAGTCCAG | -0.198 |
| CGTAAGCA | -0.0231 |

| Sequence | PBM E-score |
| --- | --- |
| ATCATGAA | 0.0447 |
| GAATGTGC | -0.0334 |
| ACTGGACC | -0.00013 |
| GGCCCAAA | 0.132 |
| AAGACATG | -0.165 |
| CAGCGCAA | -0.0115 |
| CAGTCTCC | 0.0429 |
| CAGTTTGC | 0.132 |
| CATAAAGG | 0.0543 |
| CCTCCTAA | 0.124 |
| ATTGAGCC | -0.0506 |
| CACCTAAG | 0.0206 |
| TATAAGGA | 0.124 |
| TAAGTAGA | 0.0667 |
| CACCAGGC | -0.0202 |
| ATAAAAAC | -0.0362 |
| GATAGACC | -0.24 |
| AGTTATGG | 0.0681 |
| ATCTCAGA | -0.0288 |
| CACCGATA | 0.0719 |
| CCCTTCAG | -0.0474 |
| TATGGTCA | 0.115 |
| CCGGCAGG | -0.253 |
| CTCATATC | -0.0739 |
| CCTTTGAG | -0.0418 |

| Sequence | PBM E-score |
| --- | --- |
| AGCTGTAA | -0.0854 |
| CCGGTGCA | 0.0853 |
| AACCGGGC | 0.00055 |
| GAAGCCCA | 0.368 |
| GATGTACC | -0.0844 |
| GACTACGA | -0.178 |
| ATTCACGC | 0.0667 |
| ATGATGCC | 0.238 |
| CCTACCAA | -0.0494 |
| AGGGTGCA | -0.0715 |
| CGGCGTGA | -0.0632 |
| CGTCGCAA | -0.0266 |
| CGTCGGCA | 0.0271 |
| CCCTGCGA | -0.163 |
| AATCCGCT | -0.061 |
| GCACAGGA | -0.0349 |
| GTCAAAGA | -0.189 |
| AAATCACC | 0.094 |
| AACTTGAA | 0.0158 |
| CTTTCTGA | -0.0366 |
| CATTCCGC | -0.12 |
| ATAGACAG | -0.00126 |
